ChEMBL document CHEMBL1201862, “PubChem BioAssay data set” (2004)

What follows are compounds tested on NCI-H322M (assay: NCI anticancer screen, dose series, 48 h).
With `CC12CCC(=O)C=C1CCC1C2CCC2(C)C(C(=O)Cn3cnc4c(=S)nc[nH]c43)CCC12` (centres undefined) the GI50 was inactive: 74 µM.
`Clc1ccccc1C(Nc1ncccn1)Nc1ncccn1` was tested, and the GI50 was inactive: > 100 µM.
For `O=C(O)/C=C\C(=O)Nc1ccc2c(c1)C(=O)c1cc(F)ccc1-2`, the GI50 was inactive: > 100 µM.
For `O=C1Nc2ccccc2/C1=N/NC(=S)Nc1ccccc1Cl`, the GI50 was inactive: 5.35 µM.
In the case of `N#Cc1nc(-c2ccccn2)c(-c2ccccn2)nc1C#N`, the GI50 is reported as active: 0.519 µM.
In the case of `COc1cc(/C=C/C(=N\NS(=O)(=O)c2ccc(C)cc2)c2sc(NNC(C)=O)nc2C)ccc1O`, the GI50 is reported as inactive: > 100 µM.
In the case of `O=C1C=C(Nc2cccnc2)c2ccccc2/C1=N/O`, the GI50 is reported as inactive: 42.2 µM.
For `Nc1ccc2nc(NCc3ccc(F)cc3)cnc2c1`, the GI50 was inactive: > 100 µM.
For `COc1ccc(C[n+]2cccc(O)c2)cc1`, the GI50 was inactive: > 100 µM.
In the case of `COc1ccc([C@@H]2CC(=O)NCCCNCCCCNCCCN2)cc1`, the GI50 is reported as inactive: > 100 µM.
For `OC(c1cc2ccccc2o1)c1cc2ccccc2s1` (centres undefined), the GI50 was inactive: > 10 µM.
For `C=CCCC(C)N(C(=O)OC(C)(C)C)S(=O)(=O)c1ccc(C)cc1` (centres undefined), the GI50 was inactive: > 100 µM.
With `CC1CCC[P+](Cc2ccccc2)(c2ccccc2)CC1` (centres undefined) the GI50 was inactive: > 100 µM.
For `c1ccc(CCn2cncn2)cc1`, the GI50 was inactive: > 100 µM.
For `O=C1OC2(CCCCC2)C(Oc2ccc(Cl)cc2)=C1F`, the GI50 was inactive: 56.9 µM.
`CN(C)c1ccc(/C=C2\N=C(c3ccccc3)N(c3nc4c(Cl)cc(Cl)cc4s3)C2=O)cc1` was tested, and the GI50 was inactive: 82.4 µM.
`COc1ccc(C2CC(c3c(C)nn(-c4ccccc4)c3-c3ccc(C)cc3O)=NN2c2ccccc2)cc1` (centres undefined) was tested, and the GI50 was inactive: > 100 µM.
For `O=C(NNc1cn[nH]c(=O)c1Cl)/C(=C/c1ccc2c(c1)OCO2)NC(=O)c1ccccc1`, the GI50 was inactive: 97.7 µM.
`CCOP(=O)(OCC)c1cc(-c2ccccc2)ccc1N` was tested, and the GI50 was inactive: > 100 µM.
`N=C(N)SCc1ccc(N=C=S)cc1` was tested, and the GI50 was inactive: 16.1 µM.
For `O=[N+]([O-])c1ccc2c(c1)c(OCc1ccccc1)nn2Cc1ccccc1`, the GI50 was inactive: > 100 µM.
In the case of `O=C(C/C(=N/O)C(=O)NC1=C(Cl)C(=O)c2ccccc2C1=O)CC(c1ccccc1)c1c(O)c2ccccc2oc1=O` (centres undefined), the GI50 is reported as inactive: 18.4 µM.
With `C=CCc1c(O)c2nsnc2c2nsnc12` the GI50 was inactive: 9.73 µM.
In the case of `C=C(C)[C@@]1(O[Si](C)(C)C)CCCC[C@@H]1CC(Sc1ccccc1)Sc1ccccc1`, the GI50 is reported as inactive: 17.2 µM.
`O=C1N[C@H]2c3c(Cl)sc(Cl)c3/C(=N/O)[C@H]2O1` was tested, and the GI50 was inactive: > 100 µM.
For `CC12CCC3c4cc(Br)c(O)c(Br)c4CCC3C1CCC2O` (centres undefined), the GI50 was inactive: 15.5 µM.
For `CC(C)(C)C1CCC2c3c([nH]c4ccccc34)C3C(=O)N(c4cccc([N+](=O)[O-])c4)C(=O)C3C2C1` (centres undefined), the GI50 was inactive: 21.9 µM.
`O=C(c1ccccc1)N1CCC(CC2(c3cc4ccccc4[nH]3)OCCO2)CC1` was tested, and the GI50 was inactive: 50.2 µM.
In the case of `O=c1[nH]c2ccc(CC(=S)N3CCOCC3)cc2s1`, the GI50 is reported as inactive: > 100 µM.
In the case of `O=C(c1ccc(Cl)cc1)c1ccc(OCC(=O)N2CCN(c3ccccc3)CC2)cc1`, the GI50 is reported as inactive: > 100 µM.
In the case of `N#Cc1cc([N+](=O)[O-])ccc1NC(=O)C(=O)Nn1c(S)nc2ccccc2c1=O`, the GI50 is reported as inactive: > 100 µM.
For `Oc1nc(S)nc2c1C(c1ccc(Cl)cc1)c1c(O)nc(S)nc1O2`, the GI50 was inactive: > 100 µM.
In the case of `O=C(C[C@@H]1CCCN2CCCC[C@H]12)N1c2ccccc2Sc2ccc(Cl)cc21`, the GI50 is reported as inactive: 16.6 µM.
With `Nc1nc(Nc2ccccc2)sc1C(=O)c1ccco1` the GI50 was inactive: 16.9 µM.
For `COc1cc(/C=C2/SC(c3ccccc3)N(c3cccc(NC(C)=O)c3)C2=O)cc(OC)c1OC` (centres undefined), the GI50 was inactive: > 100 µM.
In the case of `CC1OC(n2cnc3c(N)nc(Cl)nc32)C(C)(O)C1O` (centres undefined), the GI50 is reported as inactive: > 25 µM.
`CC[P+](C)(C)CC` was tested, and the GI50 was inactive: > 100 µM.
With `N#Cc1ccc(OCc2nc3cc(C(F)(F)F)ccc3nc2-c2ccccc2)cc1` the GI50 was inactive: > 100 µM.
In the case of `O=C1CC(=O)NC(NN2C(=O)/C(=C/c3ccccc3)N=C2c2ccccc2)=N1`, the GI50 is reported as inactive: > 100 µM.
In the case of `O=C1NCN(c2ccccc2)C12CCN(CCCN1CCN(CCOC(c3ccccc3)c3ccccc3)CC1)CC2`, the GI50 is reported as inactive: 4.02 µM.
With `Cc1cc2nc3c(C#N)c(-c4ccccc4)cc(Nc4cccc(C(F)(F)F)c4)n3c2cc1C` the GI50 was inactive: 5.46 µM.
`O=C(NCCCNCCCNC(=O)c1cc(-c2ccccc2)nc2ccccc12)c1cc(-c2ccccc2)nc2ccccc12` was tested, and the GI50 was inactive: 2.25 µM.
`CC(C)N(c1cc2c(cc1F)c(=O)c(C(=O)O)cn2-c1ccc(N2CCN(C)CC2)cn1)C(C)C` was tested, and the GI50 was inactive: > 100 µM.
In the case of `CC/C(=C\c1ccc(OC)cc1)c1ccc(OC)cc1`, the GI50 is reported as inactive: > 100 µM.
For `O=C1OCC=C1COC1OC(CO)C(O)C(O)C1O` (centres undefined), the GI50 was inactive: > 100 µM.
With `COC(=O)C1=CSC2(S1)C(C(=O)OC)=CSc1c2ssc1=O` (centres undefined) the GI50 was inactive: 5.82 µM.
For `COc1nc2c(nc(N)n2C2OC(CO)C(O)C(O)C2O)c(=O)[nH]1` (centres undefined), the GI50 was inactive: > 100 µM.
In the case of `CC1(C)C=CC(=O)C(O)C(C)(C)C1=O` (centres undefined), the GI50 is reported as inactive: > 100 µM.
`N#Cc1cccc(NC(=O)c2ccc(C(=O)O)c(C(=O)c3ccc(C(=O)O)c(C(=O)Nc4cccc(C#N)c4)c3)c2)c1` was tested, and the GI50 was inactive: > 100 µM.
`Cc1cn(S(=O)(=O)c2ccccc2)c2c(OCc3ccccc3)cc(NC(=O)c3cc4cc([N+](=O)[O-])ccc4s3)cc12` was tested, and the GI50 was inactive: > 100 µM.
In the case of `O=C(CCN1CCCCC1)C(=Cc1ccccc1)C(=O)CCN1CCCCC1`, the GI50 is reported as inactive: > 100 µM.
`CCCCNc1nc2ccccc2c2c1ncn2CC(C)C` was tested, and the GI50 was inactive: > 100 µM.
For `C=C1C(O)C2(O)OCC34C(CC5C(C)=CC(=O)C(O)C5(C)C23)OC(=O)C(OC(=O)C/C=C/CCCCCCCC)C14` (centres undefined), the GI50 was active: 0.0289 µM.
With `Cc1ccc(/N=N/c2c(C)c(C#N)c(=S)n(C3OC(CO)C(O)C(O)C3O)c2C)cc1` (centres undefined) the GI50 was inactive: 24.1 µM.
With `O=C(CC1Sc2ccccc2NC1=O)Nc1ccc(Cl)cc1` (centres undefined) the GI50 was inactive: 46.3 µM.
`CCCCc1c2c(nc3c1CCCC3O)/C(=C/c1ccccc1)CCC2` (centres undefined) was tested, and the GI50 was inactive: 43.9 µM.
For `Cc1[nH]c2ccccc2c1-c1n[nH]c(=O)c2ccccc12`, the GI50 was inactive: 26.7 µM.
For `Brc1cccc(C2ON=C(c3ccccc3)N2C23CC4CC(CC(C4)C2)C3)c1` (centres undefined), the GI50 was inactive: > 10 µM.
With `Nc1nc(N)c(N=O)c(Nc2ccc(Br)cc2)n1` the GI50 was inactive: 18.6 µM.
In the case of `CCOCNC(=O)N(COCC)COCC`, the GI50 is reported as inactive: > 100 µM.
`O=S1(=O)CCN(Cc2ccccc2)/C1=N\S(=O)(=O)c1ccc(Cl)cc1` was tested, and the GI50 was inactive: > 100 µM.
For `N/C(=N\N=C=C1C(=O)Nc2ccc(F)cc21)NO`, the GI50 was inactive: > 100 µM.
For `O=S(=O)(c1ccccc1)N1CCC1c1ccccc1` (centres undefined), the GI50 was inactive: > 100 µM.
`Cc1cccc(C)c1CO` was tested, and the GI50 was inactive: > 100 µM.
`CCCCCCCN1C(=O)C(O)(c2ccc(C3(O)C(=O)N(CCCCCCC)c4ccccc43)s2)c2ccccc21` (centres undefined) was tested, and the GI50 was inactive: 2.26 µM.
With `CCC(C)C(C(=O)N/N=C1/SCC(=O)N1C)C(=O)N/N=C1/SCC(=O)N1C` (centres undefined) the GI50 was inactive: > 100 µM.
With `CC(C)(C)c1cc(-c2c3nc(c(-c4cc(C(C)(C)C)cc(C(C)(C)C)c4)c4ccc([nH]4)c(-c4cc(C(C)(C)C)cc(C(C)(C)C)c4)c4nc(c(-c5cc(C(C)(C)C)cc(C(C)(C)C)c5)c5ccc2[nH]5)C=C4)C=C3)cc(C(C)(C)C)c1` the GI50 was inactive: > 100 µM.
For `COc1cc2c(cc1O)-c1c(OC)c(O)cc3c1C(C2)N(C)CC3` (centres undefined), the GI50 was inactive: > 100 µM.
In the case of `CCCCNC1CCC2(SCCS2)c2[nH]c3ccccc3c21` (centres undefined), the GI50 is reported as inactive: 71.8 µM.
`Cc1cnc2cc(Cl)ccc2c1NCCN(CC(C)C)CC(C)C` was tested, and the GI50 was inactive: > 100 µM.
In the case of `Nc1ccn(C2OC(CO[PH](=O)OC3C(CO[PH](=O)OC4C(CO[PH](=O)OC5C(CO[PH](=O)OC6C(CO[PH](=O)OC7C(CO[PH](=O)OC8C(CO[PH](=O)OC9C(CO[PH](=O)OC%10C(CO[PH](=O)OC%11C(CO)OC(n%12ccc(N)nc%12=O)C%11(F)F)OC(n%11ccc(N)nc%11=O)C%10(F)F)OC(n%10ccc(N)nc%10=O)C9(F)F)OC(n9ccc(N)nc9=O)C8(F)F)OC(n8ccc(N)nc8=O)C7(F)F)OC(n7ccc(N)nc7=O)C6(F)F)OC(n6ccc(N)nc6=O)C5(F)F)OC(n5ccc(N)nc5=O)C4(F)F)OC(n4ccc(N)nc4=O)C3(F)F)C(O)C2(F)F)c(=O)n1` (centres undefined), the GI50 is reported as inactive: 5.14 µM.
`O=c1cc(CN2CCCCC2)nc2ccc3c(O)cc(CN4CCCCC4)nc3n12` was tested, and the GI50 was inactive: > 100 µM.
With `Cc1ccc(/N=C2\N=C(N3CC(C)OC(C)C3)c3ccccc32)cc1` (centres undefined) the GI50 was inactive: 23.2 µM.
With `COc1ccc(CNc2cnc3ccc(N)cc3n2)cc1OC` the GI50 was inactive: > 100 µM.
`CCN(CC)c1ccc(/N=N/c2ccc(-c3nc4cccn(C)c-4n3)cc2)cc1` was tested, and the GI50 was inactive: 13.3 µM.
`Nc1nc(Cl)c(N)c(NCC2(CO)CCCC2)n1` was tested, and the GI50 was inactive: > 100 µM.
In the case of `COc1ccc(CCNC(=S)NC=C2C(=O)c3ccccc3C2=O)cc1OC`, the GI50 is reported as inactive: > 100 µM.
With `CCOC(=O)C(=O)Nc1ccccc1OCC` the GI50 was inactive: > 100 µM.
For `O=C(c1ccccc1)n1c2ccc(Br)cc2c2nc3ccccc3nc21`, the GI50 was inactive: > 100 µM.
For `COc1ccc(/C=C(/C)[N+](=O)[O-])cc1`, the GI50 was inactive: 3.75 µM.
In the case of `CC(C)[Si](OC1=C(C(=O)N(C)c2cccc(Cl)c2)CCCC1)(C(C)C)C(C)C`, the GI50 is reported as inactive: 15 µM.
In the case of `COc1ccc(N2C(=O)C3ON(Cc4ccc(CC(N)=O)cc4)C(c4c5ccccc5c(C)c5ccccc45)C3C2=O)cc1` (centres undefined), the GI50 is reported as inactive: 43.1 µM.
`CSc1nc(C)c(CCOC(C)=O)c(Cl)n1` was tested, and the GI50 was inactive: > 100 µM.
`Cc1cc(N(CCC#N)CCC#N)ccc1/C=N\c1ccc(C(=O)NN2C(=O)/C(=C/c3ccc(N(CCC#N)CCC#N)cc3)N=C2c2cc([N+](=O)[O-])ccc2Cl)cc1` was tested, and the GI50 was inactive: > 100 µM.
`C[Si](C)(C)CNC(=O)OCc1ccccc1` was tested, and the GI50 was inactive: > 100 µM.
With `CC(C)(C)[Si](C)(C)O/N=C\c1cccc(O[Si](C)(C)C(C)(C)C)c1` the GI50 was inactive: 16.1 µM.
In the case of `Nc1c(C(=O)c2ccccc2)nnc2ccccc12`, the GI50 is reported as inactive: 35.8 µM.
For `N#C[BH2-][n+]1cn(C2CC(O)C(COP(=O)(O)OC3CC(n4cnc5c(N)ncnc54)OC3CO)O2)c2nc(N)[nH]c(=O)c21` (centres undefined), the GI50 was inactive: > 100 µM.
With `Nc1nc(=O)n([C@@H]2CC[C@H](CO)O2)cc1F` the GI50 was inactive: > 100 µM.

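All cell lines were grown in 96-well plates and treated with compound for 48 hours. The concentration for 50% growth inhibition is given as GI50.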 Calls of active or inactive are those of the source. Cut-off read from the data, not from the text of the source: active = GI50 up to about 1.1 µM and inactive = higher.
